According to the supplement of paper PMC4166925:
± gives the standard deviation of the averaged measurements. The full ranking holds about 33,000 sequences; the median of “E-score (dimensionless, -0.5 to 0.5)” is about -0.049, and the highest 2% start at about 0.37. The list shows a part of the results.

Test system: T1, PmTbr T-box DNA-binding domain (GST fusion)
T1 sequence: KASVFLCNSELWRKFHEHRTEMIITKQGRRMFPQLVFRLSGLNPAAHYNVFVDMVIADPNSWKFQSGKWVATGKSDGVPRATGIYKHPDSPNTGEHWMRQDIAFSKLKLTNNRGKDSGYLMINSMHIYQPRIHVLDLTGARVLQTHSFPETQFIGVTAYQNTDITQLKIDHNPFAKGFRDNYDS
Assay: PBM E-score of 8-mer (E-score (dimensionless, -0.5 to 0.5)); Tbr is Tbrain of the sea star Patiria miniata (Pm) or the sea urchin Strongylocentrotus purpuratus (Sp); higher = stronger binding preference; most listed sequences are background and not binding sites
Conditions: the construct has about 5 more residues each side
Outline: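 GST-fused Tbr T-box DNA-binding domains (the whole T-box plus about five flanking residues) were expressed in BL21 E. coli at 20 °C and purified by glutathione affinity chromatography. Universal Agilent oligonucleotide arrays were made double-stranded by primer extension, incubated with 200 nM protein in PBS (pH 7.5), then scanned and quantified. Every ungapped 8-mer was scored from probe intensities. The Universal PBM Analysis Suite gave each word an enrichment E-score, averaged over duplicate arrays.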

Sequence | PBM E-score of 8-mer
AGCAAGAC | -0.124 ± 0.035
GTGCCCGA | 0.0236 ± 0.034
AAGTACTG | -0.137 ± 0.025
ACACGCCG | 0.236 ± 0.017
AAACACAA | 0.093 ± 0.021
ACATCCCG | 0.0506 ± 0.012
AGACGCGA | 0.0338 ± 0.11
CTTGCGTA | -0.00524 ± 0.0081
GCAGAAAC | -0.123 ± 0.011
AGATCGCG | 0.302 ± 0.013
AAGTTACG | -0.089 ± 0.012
GACACGCA | 0.141 ± 0.029
ACTAAAAG | 0.0789 ± 0.096
GCTAGATA | 0.00722 ± 0.074
TATAGTCA | -0.041 ± 0.008
GTATGGTA | -0.161 ± 0.0085
CCAGACTC | -0.255 ± 0.029
AAGCTGAG | -0.0617 ± 0.068
CTAAGAGA | -0.23 ± 0.017
CGAGAACC | 0.0878 ± 0.053
CCCCTAGG | -0.0463 ± 0.05
GAGAGCAC | 0.00284 ± 0.03
GACAGTAC | -0.048 ± 0.096
CTTAGTTC | -0.226 ± 0.032
ACCGTTCT | -0.0546 ± 0.035

Sequence | PBM E-score of 8-mer
GAATCTAC | -0.222 ± 0.02
GAGTGCAA | 0.0826 ± 0.02
AAGACGGC | 0.0428 ± 0.031
TCAAAGGA | -0.236 ± 0.066
ATGTTATG | 0.0197 ± 0.062
CGCAATGC | -0.0307 ± 0.0037
ACCACAGT | -0.0574 ± 0.015
GTAGATAC | -0.283 ± 0.12
CACCACTA | 0.128 ± 0.087
CAGGACCC | -0.269 ± 0.0099
CGCAGTGA | 0.00468 ± 0.0035
ATTGTAAC | 0.0315 ± 0.012
CCACGAAC | 0.0733 ± 0.013
ACATGACG | 0.114 ± 0.066
CCAGGACG | -0.0996 ± 0.027
GCAGGTCC | -0.21 ± 0.029
CAAAATTA | 0.196 ± 0.077
CTGCTTCA | 0.072 ± 0.033
CCCCAAGG | 0.0817 ± 0.065
CCAACTGA | -0.105 ± 0.0028
AAACATGT | 0.0785 ± 0.032
CGTCATAA | -0.0926 ± 0.0093
GTTGCACA | 0.154 ± 0.0076
AAATCCAC | -0.0717 ± 0.046
AGAGCTTG | -0.238 ± 0.032

Sequence | PBM E-score of 8-mer
ATTCACAG | 0.355 ± 0.0076
ATGAGAGG | -0.169 ± 0.061
AGCCCGTA | -0.113 ± 0.068
ACGAAGAA | -0.157 ± 0.018
AACGTTTA | -0.232 ± 0.0033
GCCACTCC | -0.0106 ± 0.059
GTACGATA | -0.168 ± 0.017
ACGGAATA | 0.0775 ± 0.041
ACGCCGGA | -0.0954 ± 0.06
AAACACCC | 0.227 ± 0.027
CCCGTCGC | 0.0821 ± 0.044
ACTGCTAG | 0.0461 ± 0.039
AGACTTTG | -0.00767 ± 0.055
AGGGGGGG | -0.254 ± 0.013
AATTTTGA | -0.152 ± 0.0084
GATCAGTA | -0.214 ± 0.022
CCAAGGAA | -0.24 ± 0.073
AAAGTGTC | 0.4215 ± 0.0027
ACTATGGA | -0.246 ± 0.02
CCCGTCGA | -0.016 ± 0.0077
GATAAAAA | 0.105 ± 0.14
ATATACTG | -0.178 ± 0.023
ATTTTTTC | -0.128 ± 0.13
AGGCAAGC | -0.0192 ± 0.0055
CGAGATTC | 0.0814 ± 0.0071

Sequence | PBM E-score of 8-mer
CATGATAC | -0.107 ± 0.045
CGTCCCTA | -0.0903 ± 0.03
CTGGCTGC | -0.078 ± 0.025
CCAAGTAG | -0.0237 ± 0.021
CCTGGTCG | 0.00532 ± 0.059
CTTTTGCC | -0.00579 ± 0.051
GGACAGCA | -0.126 ± 0.077
GAGACCCC | -0.14 ± 0.034
ATTTCCTG | 0.0623 ± 0.0096
CGAATGAA | -0.0823 ± 0.076
GATATAAA | -0.127 ± 0.017
ACGGCAAC | 0.0535 ± 0.1
GATTATGC | -0.19 ± 0.0085
AAGAACCT | -0.12 ± 0.06
CCCGAGCG | -0.122 ± 0.12
CCTAATGA | -0.231 ± 0.03
ACTATTGG | 0.107 ± 0.044
CTATGTCA | 0.116 ± 0.015
CGTTGAGA | 0.0458 ± 0.03
AGGCTTTC | 0.0312 ± 0.02
ACAACTTG | 0.295 ± 0.043
ACACCACA | 0.377 ± 0.008
ACCCTTGC | 0.0156 ± 0.051
GTAATTAA | -0.125 ± 0.12
GGTATCTA | -0.354 ± 0.0049

Sequence | PBM E-score of 8-mer
CTAACGTA | -0.0997 ± 0.014
AGAGTGAC | 0.19 ± 0.023
TCATATGA | -0.186 ± 0.13
ACGCTCTC | 0.0529 ± 0.013
GGAAACGA | 0.00114 ± 0.1
AAGCAGCC | -0.0997 ± 0.03
AGAATTAA | -0.201 ± 0.015
AATGCCAT | -0.136 ± 0.014
AACCGGTT | 0.0785 ± 0.12
TCCGCCGA | -0.0905 ± 0.04
CAGGTCAG | -0.093 ± 0.034
GCAGGTCA | 0.103 ± 0.027
AACCGGGT | -0.132 ± 0.027
ACACAGAA | -0.178 ± 0.04
TATCCAGA | -0.357 ± 0.018
CCGGGCCG | -0.2697 ± 0.0024
AACAGAAC | -0.148 ± 0.12
CACCTTAC | 0.394 ± 0.0074
AGGCTCTG | -0.0891 ± 0.012
TAGAAGGA | -0.241 ± 0.062
ACACATGA | 0.214 ± 0.043
ATAGCGTG | 0.148 ± 0.029
ATTGATTC | -0.0692 ± 0.092
TCAACTGA | 0.0715 ± 0.01
AAATGGTG | 0.075 ± 0.0028

Sequence | PBM E-score of 8-mer
AGGATAGC | -0.217 ± 0.034
ACCGTCTG | -0.0903 ± 0.044
ATAGGTGC | 0.414 ± 0.0057
TCGTAGAA | -0.271 ± 0.018
CATTACAG | -0.113 ± 0.059
AGGCATAG | -0.243 ± 0.032
CCCCGGCA | -0.152 ± 0.025
CGAGATAA | -0.023 ± 0.048
CGGGTTAA | -0.0931 ± 0.03
CGCCATCA | 0.148 ± 0.047
GGGGTGTA | 0.175 ± 0.0049
AGCACCTA | 0.435 ± 0.00088
CATGACGG | 0.0229 ± 0.11
ACTGTATC | -0.207 ± 0.022
AACGCACC | 0.0687 ± 0.032
ATACAGTC | -0.149 ± 0.035
AAAAGGGG | -0.0705 ± 0.051
GGAAATAA | 0.0367 ± 0.013
ATCTTCGC | 0.2 ± 0.02
ATGGAATG | -0.2435 ± 0.0015
CAGGCTAA | -0.242 ± 0.019
CGAAAACA | 0.117 ± 0.031
GTTACCTA | 0.00641 ± 0.065
AGATCCGA | -0.221 ± 0.013
ATTTCCGC | -0.0197 ± 0.0077

Sequence | PBM E-score of 8-mer
CGAGAGCA | -0.0175 ± 0.0036
AACCGGTC | -0.168 ± 0.018
CTTGAAAA | -0.0559 ± 0.0075
AATTTCCC | 0.0027 ± 0.073
AGACCGGA | -0.197 ± 0.075
ATCCCCTA | -0.219 ± 0.078
CGCGCCCG | 0.236 ± 0.069
ACGCTCAA | 0.00488 ± 0.053
AGCACAAG | -0.161 ± 0.021
AAGCCTGT | -0.0372 ± 0.058
CGACTGTC | 0.0491 ± 0.14
CGCCGCAC | 0.289 ± 0.038
CGCAAATC | 0.155 ± 0.018
CTGCCACA | 0.226 ± 0.014
GCGAGCAA | 0.0445 ± 0.074
CTCTAAAC | -0.0367 ± 0.027
AACTCTAA | -0.234 ± 0.037
GGATGATA | -0.074 ± 0.044
CTGGCCAG | -0.16 ± 0.073
ACGAGATG | 0.0399 ± 0.024
GCGTAAAA | 0.0638 ± 0.066
ATGCGATG | -0.0215 ± 0.034
